Experimental data from PubChem BioAssay (NCI).
“And” between values parts separate entries of the source, which are not always exact repeats. Identical values can stand only once.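 Assay format: 96-well plates, 48-hour exposure. GI50 is the concentration that inhibits growth by half. The concentration for full growth arrest is given as TGI.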

Test system: NCI-H322M lung
Assay: NCI tumour cell line growth inhibition, 48 h

Compound | TGI | GI50
CCN(CC)CCCNC(=O)C1COc2cc(-c3cc(=O)c4ccccc4o3)ccc2O1 (stereo not given) | > 100 µM | 
c1ccc(C2=NCCN2)c(C2=NCCN2)c1 | > 100 µM | 
C[C@@H](O)[C@H](NC(=O)N[C@@H](CC(N)=O)c1nc([C@@H](N)CO)no1)C(=O)O | > 100 µM | > 100 µM
CCOC(=O)N1c2c(ccn2C)-c2ccn(C)c2N1C(=O)OCC | 65.2 µM | 
CCCCCCCCCCCCCCCCCCN(C)C(COC)COP(=O)([O-])OCC[N+](C)(C)C (stereo not given) | 21 µM | 
C[C@]12CC[C@H](OC3OC(CO)C(O)C(O)C3O)C[C@H]1CC[C@@H]1[C@@H]2CC[C@]2(C)[C@@H](C3=CCOC3=O)CC[C@]12O (stereo not given in full) | 50 µM and > 100 µM | > 100 µM
CN(C)CCCn1c(Cc2ccc(Cl)cc2)nc2cc(C(F)(F)F)ccc21 | 30.6 µM | 
COc1ccc(N2C(=O)[C@H]3[C@H]4CC(C(C)(C)C)CC[C@H]4c4c(n(C)c5ccccc45)[C@H]3C2=O)cc1 (stereo not given in full) | > 100 µM | 
